We go through 39 molecules from the supplement of paper PMC8007513.

This experiment deals with Trichoderma virens ATCC 9645. As to the kind of experiment: growth yield (OD600) with compound + IPBC relative to untreated control; higher = less growth inhibition. To be noted: compound concentration: 100 uM, IPBC concentration: 200 ng/ml. The essentials:
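Spores of Trichoderma virens ATCC 9645, taken from potato dextrose agar plates grown for 7 days, were suspended at 15,000 spores ml^−1 in potato dextrose broth. In 96-well plates, 100 μl aliquots held library compounds at 100 μM final, either alone or together with a biocide at 200 ng ml^−1, and were grown at 30 °C. A BioTek EL800 read OD600 at 40 h and 72 h. Growth values are given relative to the control lacking both agents and are means of duplicate screens.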

SMILES strings stand for the structures. Counter-ions that a name gives are not always drawn. ± gives the standard error. Among all 1,300 compounds or so, about 130 (10%) showed an effect of 50% or more. This is a selection; strong and weak results do not stand in their true shares.

In the case of `O=C(CCNNC(=O)c1ccncc1)NCc1ccccc1` [Nialamide] + CCCCNC(=O)OCC#CI [3-iodo-2-propynyl butylcarbamate (IPBC)], the growth yield (40 h) amounted to 94.4% and the growth yield (72 h) was 90.61 ± 0.42%.

On to `CSc1nc2cc(Cl)c(Oc3cccc(Cl)c3Cl)cc2[nH]1` [Triclabendazole] + CCCCNC(=O)OCC#CI [3-iodo-2-propynyl butylcarbamate (IPBC)], for which the growth yield by setting is: (40 h) 66.7 ± 3.2%; (72 h) 120 ± 6.5%. For the molecule `Cc1nc2ccccn2c(=O)c1CCN1CCC(C(=O)c2ccc(F)cc2)CC1` [Pirenperone] + CCCCNC(=O)OCC#CI [3-iodo-2-propynyl butylcarbamate (IPBC)], the growth yield runs as follows: (40 h) 90.9 ± 6.3%; (72 h) 93.8 ± 2.9%. As to `NC(=O)c1cnccn1` [Pyrazinamide] + CCCCNC(=O)OCC#CI [3-iodo-2-propynyl butylcarbamate (IPBC)], the growth yield (40 h) stood at 90.4 ± 7.5% and the growth yield (72 h) is 95 ± 5%. Consider `CC=CC1=C(C(=O)O)N2C(=O)[C@@H](NC(=O)[C@H](N)c3ccc(O)cc3)[C@H]2SC1` [Cefprozil] + CCCCNC(=O)OCC#CI [3-iodo-2-propynyl butylcarbamate (IPBC)], for which the growth yield (40 h) came to 113 ± 4.9% and the growth yield (72 h) was determined as 103 ± 0.63%. Turning to `Cc1cc2c(s1)Nc1ccccc1N=C2N1CCN(C)CC1` [Olanzapine] + CCCCNC(=O)OCC#CI [3-iodo-2-propynyl butylcarbamate (IPBC)], the growth yield was 70.4 ± 0.79% (40 h) and 91.6 ± 1.1% (72 h). As to `CC(Cc1ccc(O)cc1)NCC(O)c1cc(O)cc(O)c1` (configuration not stated) [Fenoterol hydrobromide] + CCCCNC(=O)OCC#CI [3-iodo-2-propynyl butylcarbamate (IPBC)], the growth yield reads like this: (40 h) 91.7 ± 5.9%; (72 h) 95.4 ± 5%. In the case of `C1CCc2nnnn2CC1` [Pentylenetetrazole] + CCCCNC(=O)OCC#CI [3-iodo-2-propynyl butylcarbamate (IPBC)], the growth yield (40 h) worked out at 104 ± 2.9% and the growth yield (72 h) is 102.9 ± 0.73%.

For the molecule `CN1CCCN=C1/C=C/c1cccc(O)c1` [Oxantel pamoate] + CCCCNC(=O)OCC#CI [3-iodo-2-propynyl butylcarbamate (IPBC)], the growth yield reads like this: (40 h) 81.2 ± 5.6%; (72 h) 103 ± 3.4%. Consider `CC(N)CCCC(C)(C)O` (configuration not stated) [Heptaminol hydrochloride] + CCCCNC(=O)OCC#CI [3-iodo-2-propynyl butylcarbamate (IPBC)], for which the growth yield reads like this: (40 h) 88.63 ± 0.32%; (72 h) 93.4 ± 1.1%. For `O=C(O)c1cc(/N=N/c2ccc(S(=O)(=O)Nc3ccccn3)cc2)ccc1O` [Sulfasalazine] + CCCCNC(=O)OCC#CI [3-iodo-2-propynyl butylcarbamate (IPBC)], the growth yield reads like this: (40 h) 89.7 ± 3.3%; (72 h) 95.9 ± 2.3%.

As to `CNCC(O)c1ccc(O)cc1` (racemic) [(+,-)-Synephrine] + CCCCNC(=O)OCC#CI [3-iodo-2-propynyl butylcarbamate (IPBC)], the growth yield was determined as 81.3 ± 3.8% (40 h) and 93.8 ± 6.3% (72 h).

Turning to `C/C(=C\C(=O)OCCCCCCCCC(=O)O)C[C@@H]1OC[C@H](C[C@@H]2O[C@H]2[C@@H](C)[C@H](C)O)[C@@H](O)[C@H]1O` [Mupirocin] + CCCCNC(=O)OCC#CI [3-iodo-2-propynyl butylcarbamate (IPBC)], the growth yield reads like this: (40 h) 6.51 ± 1.4%; (72 h) 43.4 ± 5.7%.

As to `CCc1cccc(CC)c1NC(=O)CN(CC(=O)O)CC(=O)O` [Etifenin] + CCCCNC(=O)OCC#CI [3-iodo-2-propynyl butylcarbamate (IPBC)], the growth yield by setting is: (40 h) 87.7 ± 4.1%; (72 h) 94.4 ± 2.3%. Turning to `CN/C(=N\CCSCc1nc[nH]c1C)NC#N` [Cimetidine] + CCCCNC(=O)OCC#CI [3-iodo-2-propynyl butylcarbamate (IPBC)], the growth yield is 85.8 ± 2.9% (40 h) and 92.4 ± 4.3% (72 h). With `CCCCc1ccc2[nH]c(NC(=O)OC)nc2c1` [Parbendazole] + CCCCNC(=O)OCC#CI [3-iodo-2-propynyl butylcarbamate (IPBC)], the growth yield runs as follows: (40 h) 27 ± 4.1%; (72 h) 80.2 ± 2.2%. `C[C@]12CC[C@@H](O)C[C@@H]1CC[C@@H]1[C@@H]2CC[C@]2(C)C(=O)CC[C@@H]12` [Androsterone] + CCCCNC(=O)OCC#CI [3-iodo-2-propynyl butylcarbamate (IPBC)]: the growth yield reads like this: (40 h) 57.82 ± 0.32%; (72 h) 91.5%. In the same order, the values of `Nc1ncnc2c1ncn2C1OC(COP(=O)(O)O)C(O)C1O` (configuration not stated) [Adenosine 5'-monophosphate monohydrate] + CCCCNC(=O)OCC#CI [3-iodo-2-propynyl butylcarbamate (IPBC)] are 79.4 ± 1.3% and 91.2 ± 1.1%. For `C[C@@H]1C[C@H]2[C@@H]3CCC4=CC(=O)C=C[C@]4(C)[C@@]3(Cl)[C@@H](O)C[C@]2(C)[C@@]1(OC(=O)c1ccco1)C(=O)CCl` [Mometasone furoate] + CCCCNC(=O)OCC#CI [3-iodo-2-propynyl butylcarbamate (IPBC)], the growth yield is, setting by setting: (40 h) 86.57 ± 0.79%; (72 h) 87.2 ± 2%. Regarding `CC(C)(Oc1ccc(CCNC(=O)c2ccc(Cl)cc2)cc1)C(=O)O` [Bezafibrate] + CCCCNC(=O)OCC#CI [3-iodo-2-propynyl butylcarbamate (IPBC)], the growth yield was 77.67 ± 0.16% (40 h) and 90.1 ± 0.94% (72 h). Take `OCCN1CCN(CCCN2c3ccccc3Sc3ccc(C(F)(F)F)cc32)CC1` [Fluphenazine dihydrochloride] + CCCCNC(=O)OCC#CI [3-iodo-2-propynyl butylcarbamate (IPBC)]: the growth yield is 2.86% (40 h) and 2.31 ± 0.21% (72 h). As for `c1ccc(CC2=NCCN2)cc1` [Tolazoline hydrochloride] + CCCCNC(=O)OCC#CI [3-iodo-2-propynyl butylcarbamate (IPBC)], the growth yield was 88.16 ± 0.79% (40 h) and 91.3 ± 0.94% (72 h).

Consider `NC(=O)C[S+]([O-])C(c1ccccc1)c1ccccc1` (configuration not stated) [Modafinil] + CCCCNC(=O)OCC#CI [3-iodo-2-propynyl butylcarbamate (IPBC)], for which the growth yield (40 h) stood at 82 ± 3.5% and the growth yield (72 h) was determined as 93.5 ± 2.9%. For the molecule `O=C1c2ccccc2C(=O)C1c1ccccc1` [Phenindione] + CCCCNC(=O)OCC#CI [3-iodo-2-propynyl butylcarbamate (IPBC)], the growth yield reads like this: (40 h) 77.04 ± 0.16%; (72 h) 88.52 ± 0.84%. Turning to `CC[C@H]1OC(=O)[C@H](C)[C@@H](O[C@H]2C[C@@](C)(OC)[C@@H](O)[C@H](C)O2)[C@H](C)[C@@H](O[C@@H]2O[C@H](C)C[C@H](N(C)C)[C@H]2O)[C@](C)(O)C[C@@H](C)C(=O)[C@H](C)[C@@H](O)[C@]1(C)O` [Erythromycin] + CCCCNC(=O)OCC#CI [3-iodo-2-propynyl butylcarbamate (IPBC)], the growth yield (40 h) amounted to 45.3 ± 0.79%. Regarding `Cc1c(Cl)cccc1Nc1ccccc1C(=O)O` [Tolfenamic acid] + CCCCNC(=O)OCC#CI [3-iodo-2-propynyl butylcarbamate (IPBC)], the growth yield by setting is: (40 h) 75.1 ± 3.6%; (72 h) 88 ± 3.2%.

`CCc1ccc(CCOc2ccc(CC3SC(=O)NC3=O)cc2)nc1` (configuration not stated) [Pioglitazone] + CCCCNC(=O)OCC#CI [3-iodo-2-propynyl butylcarbamate (IPBC)]: the growth yield (40 h) amounted to 87.4 ± 7% and the growth yield (72 h) amounted to 90.3 ± 4.5%.

With `C[C@H](N[C@@H](CCc1ccccc1)C(=O)O)C(=O)N1CCC[C@H]1C(=O)O` [Enalaprilat dihydrate] + CCCCNC(=O)OCC#CI [3-iodo-2-propynyl butylcarbamate (IPBC)], the growth yield (40 h) was determined as 85.61 ± 0.48% and the growth yield (72 h) is 87.8 ± 1.1%. In the same order, the values of `CC(=O)[C@@]12O[C@](C)(c3ccccc3)O[C@@H]1C[C@H]1[C@@H]3CCC4=CC(=O)CC[C@]4(C)[C@H]3CC[C@@]12C` [Algestone acetophenide] + CCCCNC(=O)OCC#CI [3-iodo-2-propynyl butylcarbamate (IPBC)] are 118 ± 2.4% and 114 ± 1.5%.

As to `C[C@]12CCC(=O)C=C1CC[C@@H]1[C@@H]2C(=O)C[C@@]2(C)[C@H]1CC[C@]2(O)C(=O)CO` [Cortisone] + CCCCNC(=O)OCC#CI [3-iodo-2-propynyl butylcarbamate (IPBC)], the growth yield (40 h) is 84.3 ± 2.1% and the growth yield (72 h) came out at 92.9 ± 4.4%.

With `COC(=O)[C@H](c1ccccc1Cl)N1CCc2sccc2C1` [Clopidogrel] + CCCCNC(=O)OCC#CI [3-iodo-2-propynyl butylcarbamate (IPBC)], the growth yield (40 h) turned out to be 53.4 ± 0.64% and the growth yield (72 h) was 79.5 ± 0.42%. In the case of `COCCCC/C(=N\OCCN)c1ccc(C(F)(F)F)cc1` [Fluvoxamine maleate] + CCCCNC(=O)OCC#CI [3-iodo-2-propynyl butylcarbamate (IPBC)], the growth yield was found to be 78.8 ± 1.3% (40 h) and 87.9 ± 2.1% (72 h). On to `CCOC(=O)N1CCC(=C2c3ccc(Cl)cc3CCc3cccnc32)CC1` [Loratadine] + CCCCNC(=O)OCC#CI [3-iodo-2-propynyl butylcarbamate (IPBC)], for which the growth yield (40 h) is 17.3 ± 4% and the growth yield (72 h) amounted to 58.7 ± 2.5%. `C[C@]12CC[C@H](O)C[C@H]1CC[C@@H]1[C@@H]2C[C@@H](O)[C@]2(C)[C@@H](C3=CC(=O)OC3)CC[C@]12O` [Digoxigenin] + CCCCNC(=O)OCC#CI [3-iodo-2-propynyl butylcarbamate (IPBC)]: the growth yield runs as follows: (40 h) 86.6 ± 2.7%; (72 h) 90.72 ± 0.32%. For `COc1ccc(CC(C)NCC(O)c2ccc(O)c(NC=O)c2)cc1` (configuration not stated) [Formoterol fumarate] + CCCCNC(=O)OCC#CI [3-iodo-2-propynyl butylcarbamate (IPBC)], the growth yield reads like this: (40 h) 99.75 ± 0.32%; (72 h) 96 ± 1.6%. With `CC(Cc1ccccc1)NCCC(c1ccccc1)c1ccccc1` (configuration not stated) [Prenylamine lactate] + CCCCNC(=O)OCC#CI [3-iodo-2-propynyl butylcarbamate (IPBC)], the growth yield runs as follows: (40 h) 68.5 ± 1.1%; (72 h) 94.91 ± 0.73%. Take `CC(C)(C)C(=O)OCOC(=O)[C@@H]1N2C(=O)[C@@H](/N=C/N3CCCCCC3)[C@H]2SC1(C)C` [Pivmecillinam hydrochloride] + CCCCNC(=O)OCC#CI [3-iodo-2-propynyl butylcarbamate (IPBC)]: the growth yield was 57.8 ± 4.5% (40 h) and 77.2 ± 3.1% (72 h).

As to `OCC(O)CN1CCN(c2ccccc2)CC1` (racemic) [Dropropizine (R,S)] + CCCCNC(=O)OCC#CI [3-iodo-2-propynyl butylcarbamate (IPBC)], the growth yield by setting is: (40 h) 89.6 ± 6.7%; (72 h) 95.6 ± 4.2%. In the same order, the values of `CNc1ncnc2c1ncn2[C@@H]1O[C@H](CO)[C@@H](O)[C@H]1O` [N6-methyladenosine] + CCCCNC(=O)OCC#CI [3-iodo-2-propynyl butylcarbamate (IPBC)] are 87.5 ± 1.8% and 95.75 ± 0.73%.
